In all, about 4,500 sequences were measured (“median log2 fold change of GCK-ALFA target abundance (FLAG IP / Myc IP barcode read proportion)”: median about 0.078, lowest 2% from about -0.6 on). The list shows a part of the results.
B1: GBRAP_11_2858 (protein)
chain: KKEELEKAAELAKKLVEALEELLKKGTDDEKLLKEIRKLAEELLELLKKVGDPAEIKLAEIALEEIEKALKDPENAEEYIQRALAAARVLEGNLLLRIDE
B2: GBRAP_83_6924 (protein)
chain: MEKITVAANDDHIEEAAEAAIDLHKNEGYEVDLEFIITPESVPTLKKAVEKMAKAGLNSDITVLLKGATEEEAEALKAELEAIAAKYGVDWNIEVHLIEP
B3: GBRAP_52_6304 (protein)
chain: MAERAEKLARELLALMLAGDREGAEKLLREIAETFSDEEILALAEALAKLAATLNEEELDAAAELLLMLEDELEEAGVDPGVIAEARGIIITALYKASQA
B4: GBRAP_9_7135 (protein)
chain: MKEIVKKIIEIFEEAREESLKVVPEEYKPLVDKVFDEAIKELKELQKDPNLTKEKLKEKVEELIEEMKEIFRKNLPADVARMVEAILDTAEEEIEEILEE
B5: GBRAP_160_4333 (protein)
chain: SEKVEKLKKFIDEEFEETKKLIEGLTVEQRKVLIEGTFGEIIMELSEEPEVSDELLDYVREVEDETIKTLDENPDLTEEEIKKLIDESREKIIEALEKSE
B6: GBRAP_35_5549 (protein)
chain: DSDREIAEMLVDTIEDIVEALPDVSEEDKIALAKAAIRLARDLVELKPKDEELIKRAIEALERIKEILEESDLPEEDKEELIEEIEELIEELKKLLEENK
B7: GBRAP_52_6242 (protein)
chain: MAARMAKLAAELYALVLAGDWEGAEKLANKIAEELNDEELKIFIDELAALAAKARKEDIDKVWRLAEIVAEALEKAGKPEILVDDLEAKIAAALYKVEKK
B8: GBRAP_35_5573 (protein)
chain: DFDEETVEMLLATIEDLTLAVADMDVETAVAAANAIVKAVRALGEELKDDPEGLERLAKALEKLRDAIEKNYPDDPAAQAAAAAVDAAIKELRELAKKAK
B9: GBRAP_48_5833 (protein)
chain: MPFDEEKLEKLVEEKVEEMKEIYEEAKKEGLSREEILRMIRAELGDLALELEEAGYTKAADYLLDPENRTAVAEKLLELFEEGKYEEAKKYLLDTLKAVE
B10: GBRAP_139_3748 (protein)
chain: MAEEEVRARARALTEALAEDPEAAIARLAELLSSLDEELREAAARAIGETLLAWPWDRAEAFLDALAARLREEHGDEDGAEIVEAEANRTLALIAVREEA
B11: GBRAP_52_6107 (protein)
chain: MREEARRLVEELLELVKEGRLEEARKLIEEKVKEWNDEELRIFGEALAELAREAAPEDLDAVWRLAEMIAEAMEKAGKEEVLADDLLARVAAALYERELR
B12: GBRAP_57_6458 (protein)
chain: MSRLEKVKKAAEELKKLLDADAPKEEIEKALRKLLDLASEEVLLDTLLILDPSTDPDLSLEEVKERLLETIMELLDTEGKEAAKKAIDLIEGQEEALESE
B13: GBRAP_160_4301 (protein)
chain: MENLEKLKKEIKEIAEEAIKLIEGQSPEERLAVVRVAMGNIILEAEENPEISDEAEEEIAEIADAAEATIRANPDLSEEEVKALIKEAEKKVLELIDKLE
B14: GBRAP_52_6201 (protein)
chain: MRERARRLAQEVFDAVKAGDLERARALLRELAREKDPELLELFAEELAELALTVAPEDLDAVFEAAELAEEVFLEEGVPEELADEFLARVAAALYEREQA
B15: GBRAP_117_2580 (protein)
chain: EEERERVRERLRRTVREAGEELRAAQALSPEERARVRERVRERIREAVREAVEVLSVEEVLDIVEETLLEFDAEVYFEIMLFVEEALEEIREEREREEAE
B16: GBRAP_74_6566 (protein)
chain: SEELIEEIKEVAENKSIKEFSEYILEHIDELDEESLLVALKKLLEKLEEEEDEITEEEAELVAEAAAALADKAFTSDASRETLEAAKKLIEKVIEIEKKL
B17: GBRAP_78_6631 (protein)
chain: EVEELIDEALEELGEAARLAKKLPEEDRNEVLDLIVEASSYLLESEEEGFDLELLEKALKYAEEALELVKKIDDPEAEKLKEELEKAIELLKKAIELVKK
B18: GBRAP_57_6445 (protein)
chain: SERLKKAEELAKKIKEALEEGAPLEEIEELFEKLLDLLSEETLLDIALILDPSTDPDASREEIKERLLELFRRAVEEEGKEAAKRMVDLAVGQLEMEEIE
B19: GBRAP_166_4938 (protein)
chain: SVEEALERLRELIEKAIEEMKTANAEERTELAIEVGEALREAREAGVPLEELLEAVREYLEGVKELGWNIKIFAGIIINEADFSEEEIDKVWEIVEEILK
B20: GBRAP_160_4670 (protein)
chain: EEEIEELLRELEEIMEEAVEMMEGESLEERVAVARVMTGEVILLLEESPLATDEVIETADELGDELVAYIRAHPDATPEEIRAKLEEVLERIREKLLEEV
B21: GBRAP_11_2833 (protein)
chain: KKEKLKELAEKAEEVAKELEALIASGAPTEEQLQALLKKAKELLEEVKEYGDESLEKIAEIALELIEKAIADPERQKEYLEEALAAARVLAGQYKLELEE
B22: GBRAP_125_2989 (protein)
chain: AEEQALADLAAVLAALGFSPEDVEEAVALARKHGLRGTLYAAMLALGHDELADLVAQLTEEQTRAVLAAVAAWLEAHPDATPEEVVAHLTAVARAELARA
B23: GBRAP_95_7064 (protein)
chain: EEDLEIAEDLIDTAEDLVEIGLYEQAARAAKAAVEELKEIGYTGELALRAAEVLVKVAEATGNEEAAELAKEVLEEIRKAGGDEKKIEELEKRLEKALKK
B24: GBRAP_184_5297 (protein)
chain: KVVDKVIEAETAEEAIKKIEEVAKEAKEKGVKVNLYLFLKNVSVEGFKKIAEKLKELKEKGLIEEATVVVEDEVSEEELDKLVEIADKAGVRLVVALSDE
B25: GBRAP_160_4649 (protein)
chain: MESLEEILEIIDEYSEIAKEAIDAGDLANAIAAMRMMTGDVVLEADEDPRFSEEDVDELDELGDEGVERLEAAADASPEELKALVDETTERLKKKVKEFY
B26: GBRAP_125_3103 (protein)
chain: EEEELLEALKALALALGFSEEDAEEAAELARRFSLKNTLIAILLAEGEEELAELVEKLTEEQAKEVLKKLAEWLKENPNASKEEVIKKLKELVEEALKKA
B27: GBRAP_160_4182 (protein)
chain: SEKVKEAEKEIEEIFEEAIKMMKGQSAEERANIARVAFGEILLLLEEKGLLTDELGEKIREIEDEVVTTILENPDLTDEELEKLLKEARDKVLKLLRESS
B28: GBRAP_122_2940 (protein)
chain: AELRARAEALLAAMVAALAAGDEAGLAALARELVELFGEVSPEEARATVEALLARLAGDPAATERALRALLAAFTELVPQNEAQEAAADVVAAAFDELSE
B29: GBRAP_57_6463 (protein)
chain: MSPLEKALKYFEEAIALVEAGAPLEEVLEKVEKGLELLDRTTLLDILLLLDPSTRSDLSKEELRRRILELVRRALEEEGREAALERLRLMAGQVEMDLLD

Target: GABARAP, O95166
Test: median log2 fold change of GCK-ALFA target abundance (FLAG IP / Myc IP barcode read proportion) (log2 ratio); each designed protein is fused to an ALFA-tag nanobody in HEK293 cells to bring the named protein to FLAG-tagged glucokinase (GCK); Myc marks an untargeted standard; higher = target protein stabilised (more abundant)
Details: target protein: 3xFLAG-MCP-GCK-ALFA reporter; HEK293 landing pad (RPLP)
Method in brief: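 Binders fused to an ALFA nanobody were recombined as a library into HEK293 landing-pad cells, which were induced with 2 μg mL^−1 doxycycline and then transfected to express a FLAG-tagged target and a Myc-tagged standard. After 48 h, circular RNA barcodes recovered by anti-FLAG and anti-Myc immunoprecipitation of lysates were reverse transcribed, amplified and sequenced. Each binder's target abundance is the median log2 ratio of FLAG to Myc barcode read proportions, from barcodes present at ≥10^−7 in both replicates, binders carrying ≥3 barcodes per replicate, a 10^−6 pseudocount and pooled replicates.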

GABARAP, O95166, sequence (O95166 whole entry, the tested form may be a part): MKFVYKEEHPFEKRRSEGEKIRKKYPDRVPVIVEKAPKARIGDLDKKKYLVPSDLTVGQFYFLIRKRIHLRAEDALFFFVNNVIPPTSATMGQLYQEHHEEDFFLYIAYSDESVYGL

Binder | median log2 fold change
B1 | 0.302
B2 | -0.0677
B3 | -0.2
B4 | 0.231
B5 | 0.135
B6 | -0.761
B7 | 0.248
B8 | 0.164
B9 | 0.184
B10 | 0.211
B11 | 0.0716
B12 | 0.266
B13 | 0.114
B14 | -0.0612
B15 | 0.192
B16 | -0.133
B17 | -0.0779
B18 | 0.197
B19 | 0.0436
B20 | -0.298
B21 | 0.24
B22 | -0.0893
B23 | 0.373
B24 | -0.147
B25 | -0.255
B26 | -1.16
B27 | 0.117
B28 | 0.246
B29 | 0.173

— the supplement of paper PMC12632987
